Measurements taken from the supplement of paper PMC8728848.
This is one part of the list.

Tests used:
Assay in all cases: glycan array binding signal (z-score within array); higher = stronger binding
Details in all cases: glycan notation: IUPAC condensed, linker removed
[1] = target: Neu5Ac(a2-3)Gal(b1-4)GlcNAc(b1-3)Gal(b1-4)GlcNAc(b1-2)Man(a1-3)[Neu5Ac(a2-3)Gal(b1-4)GlcNAc(b1-3)Gal(b1-4)GlcNAc(b1-2)Man(a1-6)]Man(b1-4)GlcNAc(b1-4)GlcNAc
Outline: (§1)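 Arrays were curated from the Consortium for Functional Glycomics database, 3228 in total, and kept only where the protein sequence was available. Binding is expressed as a within-array Z-score. This score was averaged across arrays of the same protein sequence at different concentrations or buffers and across linkers, and negative values can be read as non-binding.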

[2] = target: Neu5Ac(a2-3)Gal(b1-4)GlcNAc(b1-3)Gal(b1-4)GlcNAc(b1-3)Gal(b1-4)GlcNAc
Outline: as §1

[3] = target: Neu5Ac(a2-3)Gal(b1-4)GlcNAc(b1-3)Gal(b1-4)GlcNAc(b1-3)Gal(b1-4)GlcNAc(b1-2)Man(a1-3)[Neu5Ac(a2-3)Gal(b1-4)GlcNAc(b1-3)Gal(b1-4)GlcNAc(b1-3)Gal(b1-4)GlcNAc(b1-2)Man(a1-6)]GalNAc
Outline: as §1

[4] = target: Neu5Ac(a2-3)Gal(b1-4)GlcNAc(b1-3)Gal(b1-4)GlcNAc(b1-3)GalNAc
Outline: as §1

[5] = target: Neu5Ac(a2-3)Gal(b1-4)GlcNAc(b1-3)Gal(b1-4)GlcNAc(b1-3)[Neu5Ac(a2-3)Gal(b1-4)GlcNAc(b1-3)Gal(b1-4)GlcNAc(b1-6)]GalNAc
Outline: as §1

[6] = target: Neu5Ac(a2-3)Gal(b1-4)GlcNAc(b1-3)Gal(b1-4)GlcNAc(b1-6)[Gal(b1-3)]GalNAc
Outline: as §1

[7] = target: Neu5Ac(a2-3)Gal(b1-4)GlcNAc(b1-3)Gal(b1-4)[Fuc(a1-3)]GlcNAc
Outline: as §1

[8] = target: Neu5Ac(a2-3)Gal(b1-4)GlcNAc(b1-3)GalNAc
Outline: as §1

[9] = target: Neu5Ac(a2-3)Gal(b1-4)GlcNAc(b1-3)[Neu5Ac(a2-3)Gal(b1-4)GlcNAc(b1-6)]GalNAc
Outline: as §1

[10] = target: Neu5Ac(a2-3)Gal(b1-4)GlcNAc(b1-6)GalNAc
Outline: as §1

[11] = target: Neu5Ac(a2-3)Gal(b1-4)GlcNAc(b1-6)[Gal(b1-3)]GalNAc
Outline: as §1

[12] = target: Neu5Ac(a2-3)Gal(b1-4)GlcNAc(b1-6)[Neu5Ac(a2-3)Gal(b1-3)]GalNAc
Outline: as §1

[13] = target: Neu5Ac(a2-3)Gal(b1-4)GlcNAc6S
Outline: as §1

[14] = target: Neu5Ac(a2-3)Gal(b1-4)[Fuc(a1-3)]GlcNAc
Outline: as §1

[15] = target: Neu5Ac(a2-3)Gal(b1-4)[Fuc(a1-3)]GlcNAc(b1-2)Man
Outline: as §1

[16] = target: Neu5Ac(a2-3)Gal(b1-4)[Fuc(a1-3)]GlcNAc(b1-3)Gal
Outline: as §1

[17] = target: Neu5Ac(a2-3)Gal(b1-4)[Fuc(a1-3)]GlcNAc(b1-3)Gal(b1-4)GlcNAc
Outline: as §1

[18] = target: Neu5Ac(a2-3)Gal(b1-4)[Fuc(a1-3)]GlcNAc(b1-3)Gal(b1-4)[Fuc(a1-3)]GlcNAc(b1-3)Gal(b1-4)[Fuc(a1-3)]GlcNAc
Outline: as §1

[19] = target: Neu5Ac(a2-3)Gal(b1-4)[Fuc(a1-3)]GlcNAc(b1-3)GalNAc
Outline: as §1

[20] = target: Neu5Ac(a2-3)Gal(b1-4)[Fuc(a1-3)]GlcNAc(b1-6)[Gal(b1-3)]GalNAc
Outline: as §1

[21] = target: Neu5Ac(a2-3)Gal(b1-4)[Fuc(a1-3)]GlcNAc(b1-6)[Neu5Ac(a2-3)Gal(b1-3)]GalNAc
Outline: as §1

[22] = target: Neu5Ac(a2-3)Gal(b1-4)[Fuc(a1-3)]GlcNAc6S
Outline: as §1

[23] = target: Neu5Ac(a2-3)Gal6S(b1-4)GlcNAc
Outline: as §1

[24] = target: Neu5Ac(a2-3)Gal6S(b1-4)[Fuc(a1-3)]GlcNAc
Outline: as §1

[25] = target: Neu5Ac(a2-3)GalNAc
Outline: as §1

[26] = target: Neu5Ac(a2-3)GalNAc(b1-4)GlcNAc
Outline: as §1

[27] = target: Neu5Ac(a2-3)[GalNAc(b1-4)]Gal(b1-4)Glc
Outline: as §1

[28] = target: Neu5Ac(a2-3)[GalNAc(b1-4)]Gal(b1-4)GlcNAc
Outline: as §1

[29] = target: Neu5Ac(a2-3)[GalNAc(b1-4)]Gal(b1-4)GlcNAc(b1-3)GalNAc
Outline: as §1

[30] = target: Neu5Ac(a2-3)[Neu5Ac(a2-6)]GalNAc
Outline: as §1

[31] = target: Neu5Ac(a2-6)Gal
Outline: as §1

[32] = target: Neu5Ac(a2-6)Gal(b1-3)GlcNAc(b1-3)[Gal(b1-4)GlcNAc(b1-6)]Gal(b1-4)Glc
Outline: as §1

[33] = target: Neu5Ac(a2-6)Gal(b1-4)Glc
Outline: as §1

[34] = target: Neu5Ac(a2-6)Gal(b1-4)GlcNAc
Outline: as §1

[35] = target: Neu5Ac(a2-6)Gal(b1-4)GlcNAc(b1-2)Man
Outline: as §1

[36] = target: Neu5Ac(a2-6)Gal(b1-4)GlcNAc(b1-2)Man(a1-3)Man(b1-4)GlcNAc(b1-4)GlcNAc
Outline: as §1

[37] = target: Neu5Ac(a2-6)Gal(b1-4)GlcNAc(b1-2)Man(a1-3)[Gal(b1-4)GlcNAc(b1-2)Man(a1-6)]Man(b1-4)GlcNAc(b1-4)GlcNAc
Outline: as §1

[38] = target: Neu5Ac(a2-6)Gal(b1-4)GlcNAc(b1-2)Man(a1-3)[GlcNAc(b1-2)Man(a1-6)]Man(b1-4)GlcNAc(b1-4)GlcNAc
Outline: as §1

B1: Epa1 (Candida glabrata) (protein)
chain: MGSSHHHHHHSSGLVPRGSHMTSSNDISLASKDPTTFPLGCSPDITTPKKGLSMELYSYDFRKKGSYPCWDAAYLDPNYPRTGYKSHRLLAKVDGVTGNINFYYHATKGCTPQLGHLPASYNYPKPLTMTNFTMLLYGYFRPKVTGFHTFTISADDLLFVNFGAGNAFDCCRRDSSADHFGNYQAYAIWGSKTAKDELTVHLDAGVYYPIRLFYNNREYDGALSFTFKTESNENTVSDFSEYFFSLDDTEEGCPGLISYD
Q: Which “glycan array binding signal (z-score)” value [1] does the source give for B1 here?
A: The value was -0.257.

Q: And the “glycan array binding signal (z-score)” value [2]?
A: Its value is -0.26.

Q: What about the “glycan array binding signal (z-score)” value [3] of the same binder?
A: Its value is -0.222.

Q: What about the “glycan array binding signal (z-score)” value [4] of the same binder?
A: Its value is -0.251.

Q: What about the “glycan array binding signal (z-score)” value [5] of the same binder?
A: The value was -0.054.

Q: What about the “glycan array binding signal (z-score)” value [6] of the same binder?
A: The value was 0.779.

Q: What about the “glycan array binding signal (z-score)” value [7] of the same binder?
A: Its value is -0.397.

Q: And the “glycan array binding signal (z-score)” value [8]?
A: The value was -0.309.

Q: What about the “glycan array binding signal (z-score)” value [9] of the same binder?
A: Its value is -0.315.

Q: And the “glycan array binding signal (z-score)” value [10]?
A: The value was -0.313.

Q: What about the “glycan array binding signal (z-score)” value [11] of the same binder?
A: Its value is 1.45.

Q: What about the “glycan array binding signal (z-score)” value [12] of the same binder?
A: Its value is -0.3.

Q: And the “glycan array binding signal (z-score)” value [13]?
A: Its value is -0.255.

Q: What about the “glycan array binding signal (z-score)” value [14] of the same binder?
A: The value was -0.312.

Q: And the “glycan array binding signal (z-score)” value [15]?
A: Its value is -0.346.

Q: What about the “glycan array binding signal (z-score)” value [16] of the same binder?
A: The value was -0.283.

Q: And the “glycan array binding signal (z-score)” value [17]?
A: The value was -0.214.

Q: And the “glycan array binding signal (z-score)” value [18]?
A: Its value is -0.296.

Q: And the “glycan array binding signal (z-score)” value [19]?
A: Its value is 0.05.

Q: What about the “glycan array binding signal (z-score)” value [20] of the same binder?
A: The value was 0.148.

Q: And the “glycan array binding signal (z-score)” value [21]?
A: Its value is -0.131.

Q: What about the “glycan array binding signal (z-score)” value [22] of the same binder?
A: The value was -0.288.

Q: And the “glycan array binding signal (z-score)” value [23]?
A: Its value is -0.298.

Q: And the “glycan array binding signal (z-score)” value [24]?
A: Its value is -0.351.

Q: What about the “glycan array binding signal (z-score)” value [25] of the same binder?
A: Its value is -0.312.

Q: And the “glycan array binding signal (z-score)” value [26]?
A: Its value is -0.31.

Q: What about the “glycan array binding signal (z-score)” value [27] of the same binder?
A: The value was -0.294.

Q: What about the “glycan array binding signal (z-score)” value [28] of the same binder?
A: Its value is -0.327.

Q: What about the “glycan array binding signal (z-score)” value [29] of the same binder?
A: The value was -0.312.

Q: What about the “glycan array binding signal (z-score)” value [30] of the same binder?
A: Its value is -0.328.

Q: What about the “glycan array binding signal (z-score)” value [31] of the same binder?
A: The value was -0.255.

Q: And the “glycan array binding signal (z-score)” value [32]?
A: The value was 0.218.

Q: What about the “glycan array binding signal (z-score)” value [33] of the same binder?
A: Its value is -0.284.

Q: What about the “glycan array binding signal (z-score)” value [34] of the same binder?
A: Its value is -0.312.

Q: And the “glycan array binding signal (z-score)” value [35]?
A: The value was -0.31.

Q: What about the “glycan array binding signal (z-score)” value [36] of the same binder?
A: Its value is -0.278.

Q: What about the “glycan array binding signal (z-score)” value [37] of the same binder?
A: The value was -0.219.

Q: What about the “glycan array binding signal (z-score)” value [38] of the same binder?
A: Its value is -0.304.
